The values below come from PubChem BioAssay AID1963576 (National Center for Advancing Translational Sciences (NCATS), 2024).

Among all 46,000 compounds or so, about 60 (0.1%) were called active. Another 3% or so got no clear call; they are omitted. Calls follow the shape of the dose curve; as a rule, active = well fitted inhibition curve with a large enough effect; inconclusive = small, poorly fitted or top-dose-only effect; inactive = no such curve, though single readings can be large or run the other way. Some of the results follow.

The assay is described as follows: Primary qHTS assay for Inhibitors of ovarian cancer metastasis using an organotypic tumor microenvironment (TME) model. Also: nearly all actives have a fitted effect of over 65% in size.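 As to activity change, negative = inhibition: plate controls were DMSO wells for no effect and tomatine positive control wells for full effect.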 To be noted: SKOV3ip1-GFP adhesion/invasion on 3D omental model, fluorescence; series mostly up to 45.8 µM; activity change, negative = inhibition: at the top concentration. An outline of the steps:
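qHTS, 4-pt dose (0.36-46 umol/L); SKOV3ip1-GFP, 1,200 cells/well, no FBS; primary omental fibroblast/mesothelial co-culture 48 h pre-grown; 2 h RT + 16 h 37 C; PBS wash, 4% PFA; GFP count 488/509 nm.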
For orientation: qHTS replaces the single test concentration by a dilution series.
As for `CCOc1ccc(CCNC(=O)c2nnc(Cc3ccc(Cl)cc3Cl)o2)cc1OCC`, the “activity change, negative = inhibition” value is inactive: -25.1%.

Turning to `O=S(=O)(c1ccc(F)cc1)N(CC(O)Cn1c2ccccc2c2ccccc21)c1ccccc1` (stereo unspecified), the “activity change, negative = inhibition” value was inactive: -15.4%.

For the compound `COc1ccc(C(=O)NCC(c2ccc3c(c2)OCO3)N2CCN(C)CC2)cc1` (stereo unspecified), the “activity change, negative = inhibition” value was inactive: 4.04%.

With `COc1ccc(NC(C)=O)cc1NC(=O)C1(c2cccs2)CCOCC1`, the outcome was inactive.

For `CCOc1ccc2nc(N3CCN(C(=O)c4ccco4)CC3)sc2c1`, the result was inactive.

With `COc1ccc(CNC(=O)C2CCCN(S(=O)(=O)c3ccc4c(ccn4C)c3)C2)c(OC)c1` (stereo unspecified), the “activity change, negative = inhibition” value is inactive: 0.329%.

Consider `Cc1ccc2c(=O)cc(C(=O)NCc3ccccc3)oc2c1`, for which the “activity change, negative = inhibition” value is inactive: 8.15%.

In the case of `CCOC(=O)c1cc2c(=O)n3ccccc3nc2n(CC2CCCO2)c1=NC(=O)c1ccccc1C` (stereo unspecified), the “activity change, negative = inhibition” value is inactive: 0.627%.

Take `CCn1cc(/C=C(\NC(=O)c2ccc(C)cc2)C(=O)NCCCn2ccnc2)c2ccccc21`: the result was inactive.

As to `NC(=O)c1cnc(-c2ccc(C3(N)CCC3)cc2)c(-c2ccccc2)c1`, the “activity change, negative = inhibition” value is inactive: 1.29%.

Consider `COc1cccc(C(=O)N2CCCCC2CCN2CCCCC2)c1` (stereo unspecified), for which the “activity change, negative = inhibition” value is inactive: -5.38%.

Take `Cc1cc(C)cc(-n2c(SCC(=O)N3CCC(C)CC3)nc3c([nH]c4ccccc43)c2=O)c1`: the outcome was inactive.

With `CN1CCCN(C(=O)c2cccc(-c3ccc(C=C4C(=O)Nc5ccc(Cl)cc54)o3)c2)CC1`, the “activity change, negative = inhibition” value was inactive: 17.7%.

On to `Cc1ccc(C)c(N2CCN(C(=O)Cc3c(C(=O)O)c(C)cn3C)CC2)c1`, for which the “activity change, negative = inhibition” value is inactive: 1.67%.

Consider `O=C(CSc1nc2c([nH]c3ccccc32)c(=O)n1-c1ccc(F)cc1)N1CCc2ccccc21`, for which the outcome was inactive.

Consider `CCc1ccc(-n2nc(CO)c(C(=O)NCCc3ccccc3)n2)cc1`, for which the “activity change, negative = inhibition” value was inactive: -7.13%.

In the case of `Cc1cccc(Cn2c(CNS(=O)(=O)c3ccc(C(C)C)cc3)nc3cccnc32)c1`, the “activity change, negative = inhibition” value is inactive: -1.27%.

Consider `COc1ccc(OC)c(NC(=O)c2cccc3c2C(=O)N(C2CCCCC2)C3)c1`, for which the “activity change, negative = inhibition” value is inactive: 4.46%.

For `Cc1oc(-c2ccccc2F)nc1CS(=O)CC(=O)NC(C)C` (stereo unspecified), the “activity change, negative = inhibition” value was inactive: -8.43%.

In the case of `Cc1ccc2nc(-c3ccc(NC(=O)COc4ccccc4C(C)(C)C)cc3)sc2c1`, the result was inactive.

Take `CCOC(=O)c1cc(S(=O)(=O)Nc2c(C)cc(C)cc2C)[nH]n1`: the “activity change, negative = inhibition” value is inactive: -7.81%.

Regarding `C=CCc1cccc2cc(-c3nc4ccc(C(=O)O)cc4[nH]3)c(=O)oc12`, the “activity change, negative = inhibition” value was inactive: -3.56%.

`O=C(Nc1ccccc1Br)c1cc(S(=O)(=O)NC2CCCCC2)ccc1F`: the “activity change, negative = inhibition” value was inactive: -5.7%.

`COc1cc(NC(=O)CN2CCCN(S(=O)(=O)c3ccc(F)cc3)CC2)cc(OC)c1`: the call was inactive.

Regarding `CCOc1ccc(NC(=O)Nc2cc3c(cc2N2CCCCC2)n(C)c(=O)n3C)cc1`, the “activity change, negative = inhibition” value was inactive: 8.56%.

Turning to `O=C(NCc1ccc(F)cc1)c1nnc(Cc2cccc(F)c2)o1`, the “activity change, negative = inhibition” value was inactive: -0.245%.

On to `COc1ccc(-c2noc(-c3cc(-c4ccc(F)cc4)n[nH]3)n2)cc1`, for which the “activity change, negative = inhibition” value was inactive: -11.7%.

For `COc1cc(-c2noc(-c3ccc(NC4CCCC4)c([N+](=O)[O-])c3)n2)cc(OC)c1OC`, the compound was classed as inactive.

`CCOC(=O)CCCCN(Cc1ccccc1F)S(=O)(=O)c1ccc(F)c(C(=O)Nc2cc(Cl)cc(Cl)c2)c1`: the compound was classed as inactive.

Take `COc1ccc(C2C(C(=O)Nc3cccnc3)=C(C)Nc3nc(SCc4ccccc4)nn32)cc1` (stereo unspecified): the result was inactive.

As for `Cc1ccc(C)c(NC(=O)C2CCCN2S(=O)(=O)c2ccc3c(c2)n(C)c(=O)c(=O)n3C)c1` (stereo unspecified), the “activity change, negative = inhibition” value is inactive: 12.2%.

On to `CCOCCCNC(=O)c1ccc(Cn2c(=O)c3cccn3c3cccnc32)cc1`, for which the “activity change, negative = inhibition” value is inactive: -9.4%.

Take `CC(=O)NC(C)c1nc2ccccc2n1Cc1ccccc1Cl` (stereo unspecified): the “activity change, negative = inhibition” value was inactive: 0.969%.

As to `CCOC(=O)N1CCN(c2ncc3c(n2)CC(c2ccc(Cl)cc2)CC3=O)CC1` (stereo unspecified), the compound was classed as inactive.

As for `Cc1ccc(-c2cc3nccc(-c4cc([N+](=O)[O-])ccc4O)n3n2)cc1`, the compound was called inactive.

As to `Cn1c2cc(S(C)=O)sc2c2cnn(Cc3cccc(N)c3)c(=O)c21` (stereo unspecified), the “activity change, negative = inhibition” value is inactive: 2.01%.

Consider `CN(c1ccc(F)cc1)S(=O)(=O)N1CCCC(C(=O)NCCc2ccccc2)C1` (stereo unspecified), for which the outcome was inactive.

For `COc1ccc(C2=NC(C)(C)N(CC(=O)Nc3cc(OC)cc(OC)c3)C2=O)cc1`, the “activity change, negative = inhibition” value was inactive: -4.95%.

`Cc1nc2ccc(S(=O)(=O)NC(CC(C)C)C(=O)NCc3ccc(Cl)cc3)cc2s1` (stereo unspecified): the “activity change, negative = inhibition” value was inactive: 2.53%.

`Cc1c(C(=O)OC2CCCCCC2)[nH]c2c1C(=O)CC(c1ccccc1)C2` (stereo unspecified): the “activity change, negative = inhibition” value was inactive: -0.539%.

With `CCCCNC(=O)CSc1nc2n[nH]c(C)c2c(=N)n1-c1cccc(C)c1`, the compound was called inactive.

On to `CCCOc1ccc(-c2nc3ccc(Br)cc3c(=O)o2)cc1`, for which the “activity change, negative = inhibition” value was inactive: 19.5%.

Turning to `CCOc1ccc(S(=O)(=O)NCc2nc3cccnc3n2Cc2ccccc2OC)cc1`, the “activity change, negative = inhibition” value is inactive: -5.32%.

Turning to `CCOC(=O)C1CCN(C(=O)c2ccc3c(c2)sc2nc(-c4ccc(OC)cc4)cn23)CC1`, the compound was classed as inactive.

Regarding `CCCCN(CC)CCCNC(=O)c1cc2c(=O)oc3ccc(C)cc3c2s1`, the compound was classed as inactive.

As for `O=C(Cn1c(=O)n(Cc2ccccc2)c(=O)c2sc3ccccc3c21)Nc1ccc(F)cc1`, the compound was classed as inactive.

In the case of `CC1=C(C(=O)N2CCN(c3ccc(Cl)cc3)CC2)C2(CCC(C)CC2)OC1=O` (stereo unspecified), the “activity change, negative = inhibition” value is inactive: -3.38%.

In the case of `O=C(COc1ccc(Cl)cc1)NCC(c1cccs1)S(=O)(=O)c1ccc(F)cc1` (stereo unspecified), the “activity change, negative = inhibition” value is inactive: 1.88%.

Turning to `Cc1ccc(C)c(Cn2c(=O)n(CCCC(=O)NCCc3ccc(Cl)cc3)c(=O)c3ccccc32)c1`, the call was inactive.

In the case of `CCOC(=O)c1cc(-c2ccccc2)n(CC(=O)NCc2ccccc2)c1C`, the “activity change, negative = inhibition” value was inactive: 8.59%.

For `COc1ccc(-c2nc3sc(CCNC(=O)C(=O)Nc4ccc(C)c(C)c4)c(C)n3n2)cc1`, the “activity change, negative = inhibition” value is inactive: 1.69%.

In the case of `CCOc1ccccc1CNC(=O)c1cc2c(=O)n(Cc3ccco3)ccc2nc1C`, the “activity change, negative = inhibition” value is inactive: -21.6%.

Consider `CCOc1ccc(-c2nonc2NC(=O)c2ccco2)cc1OCC`, for which the “activity change, negative = inhibition” value is inactive: -3.07%.

Regarding `CCOC(=O)c1ccc(NC(=O)CC2C(=O)N(c3cccc(C)c3)C(=O)N2CCOC)cc1` (stereo unspecified), the “activity change, negative = inhibition” value is inactive: 1.57%.

For `CC(C)c1ccc(NC(=O)c2cnc3sc(N4CCCC4)nn3c2=O)cc1`, the “activity change, negative = inhibition” value was inactive: 17.4%.

Turning to `Cc1ccc(OCC(=O)Nc2nnc(SCc3cc(=O)n4cccc(C)c4n3)s2)cc1`, the “activity change, negative = inhibition” value was inactive: -1.59%.

For `CCOc1cc(CNC(=O)NC2COc3ccccc3C2)cc(OCC)c1OCC` (stereo unspecified), the “activity change, negative = inhibition” value is inactive: -2.96%.

As to `COc1ccc(OC)c(-c2csc(-c3c(N)c(C(=O)c4ccc(Cl)cc4)n4ccccc34)n2)c1`, the “activity change, negative = inhibition” value is inactive: -8.19%.

As to `CCc1cccc(NC(c2ccccc2)c2nnc(-c3ccccc3F)o2)c1` (stereo unspecified), the “activity change, negative = inhibition” value was inactive: 4.11%.

In the case of `COc1cccc(CNC(=O)c2cc3c(=O)n(Cc4cccnc4)ccc3nc2C)c1`, the “activity change, negative = inhibition” value is inactive: -18.4%.

For the compound `CC(C)COc1ccc(C(=O)Nc2nnc(S(=O)(=O)N(C)Cc3ccco3)s2)cc1`, the outcome was inactive.
